From publication PMC9911399, “Two distinct binding modes provide the RNA-binding protein RbFox with extraordinary sequence specificity”
Numbering of substitutions follows the chain as printed; changes in the protein carry UniProt numbers. Some of the results follow.

T1: RBFOX1 RRM (Homo sapiens, UniProt Q9NWB1 109-208)
T1 sequence: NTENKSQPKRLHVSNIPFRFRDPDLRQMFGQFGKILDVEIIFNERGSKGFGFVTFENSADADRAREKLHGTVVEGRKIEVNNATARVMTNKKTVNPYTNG

B1: CCUGGCC (DNA:RNA)
RNA: GGGAGACCGGAAUUCAGAUUGUCCCCUGGCCUUAAAUCCCGUCGUAGCCACCA
DNA 1: CAATCTGAATTCCGGTCTCCC
DNA 2: TGGTGGCTACGACGGGATT
B2: UAUAACC (DNA:RNA)
RNA: B1 RNA with C25U, C26A, G28A, G29A
DNA 1: CAATCTGAATTCCGGTCTCCC
DNA 2: TGGTGGCTACGACGGGATT
B3: CAUGCUC (DNA:RNA)
RNA: B1 RNA with C26A, G29C, C30U
DNA 1: CAATCTGAATTCCGGTCTCCC
DNA 2: TGGTGGCTACGACGGGATT
B4: GCCGUUC (DNA:RNA)
RNA: B1 RNA with C25G, U27C, G29U, C30U
DNA 1: CAATCTGAATTCCGGTCTCCC
DNA 2: TGGTGGCTACGACGGGATT
B5: UCUAAAC (DNA:RNA)
RNA: B1 RNA with C25U, G28A, G29A, C30A
DNA 1: CAATCTGAATTCCGGTCTCCC
DNA 2: TGGTGGCTACGACGGGATT
B6: ACGGCCA (DNA:RNA)
RNA: B1 RNA with C25A, U27G, G29C, C31A
DNA 1: CAATCTGAATTCCGGTCTCCC
DNA 2: TGGTGGCTACGACGGGATT
B7: CCACUUC (DNA:RNA)
RNA: B1 RNA with U27A, G28C, G29U, C30U
DNA 1: CAATCTGAATTCCGGTCTCCC
DNA 2: TGGTGGCTACGACGGGATT
B8: AUGAUAC (DNA:RNA)
RNA: B1 RNA with C25A, C26U, U27G, G28A, G29U, C30A
DNA 1: CAATCTGAATTCCGGTCTCCC
DNA 2: TGGTGGCTACGACGGGATT
B9: UGCCCGG (DNA:RNA)
RNA: GGGAGACCGGAAUUCAGAUUGUCCUGCCCGGUUAAAUCCCGUCGUAGCCACCA
DNA 1: CAATCTGAATTCCGGTCTCCC
DNA 2: TGGTGGCTACGACGGGATT
B10: GCCUUGA (DNA:RNA)
RNA: B9 RNA with U25G, G26C, C28U, C29U, G31A
DNA 1: CAATCTGAATTCCGGTCTCCC
DNA 2: TGGTGGCTACGACGGGATT
B11: UGAGGUA (DNA:RNA)
RNA: B1 RNA with C25U, C26G, U27A, C30U, C31A
DNA 1: CAATCTGAATTCCGGTCTCCC
DNA 2: TGGTGGCTACGACGGGATT
B12: GGUAAAC (DNA:RNA)
RNA: B1 RNA with C25G, C26G, G28A, G29A, C30A
DNA 1: CAATCTGAATTCCGGTCTCCC
DNA 2: TGGTGGCTACGACGGGATT
B13: UCUUCCA (DNA:RNA)
RNA: B1 RNA with C25U, G28U, G29C, C31A
DNA 1: CAATCTGAATTCCGGTCTCCC
DNA 2: TGGTGGCTACGACGGGATT
B14: CAUAUUU (DNA:RNA)
RNA: B1 RNA with C26A, G28A, G29U, C30U, C31U
DNA 1: CAATCTGAATTCCGGTCTCCC
DNA 2: TGGTGGCTACGACGGGATT
B15: UUGCCAU (DNA:RNA)
RNA: B9 RNA with G26U, C27G, G30A, G31U
DNA 1: CAATCTGAATTCCGGTCTCCC
DNA 2: TGGTGGCTACGACGGGATT
B16: UAUGUCC (DNA:RNA)
RNA: B1 RNA with C25U, C26A, G29U
DNA 1: CAATCTGAATTCCGGTCTCCC
DNA 2: TGGTGGCTACGACGGGATT
B17: CGCUUUG (DNA:RNA)
RNA: B9 RNA with U25C, C28U, C29U, G30U
DNA 1: CAATCTGAATTCCGGTCTCCC
DNA 2: TGGTGGCTACGACGGGATT
B18: UUGGACA (DNA:RNA)
RNA: B1 RNA with C25U, C26U, U27G, G29A, C31A
DNA 1: CAATCTGAATTCCGGTCTCCC
DNA 2: TGGTGGCTACGACGGGATT
B19: CGAUAUC (DNA:RNA)
RNA: B1 RNA with C26G, U27A, G28U, G29A, C30U
DNA 1: CAATCTGAATTCCGGTCTCCC
DNA 2: TGGTGGCTACGACGGGATT
B20: CAAUAGA (DNA:RNA)
RNA: B1 RNA with C26A, U27A, G28U, G29A, C30G, C31A
DNA 1: CAATCTGAATTCCGGTCTCCC
DNA 2: TGGTGGCTACGACGGGATT
B21: CAUACCC (DNA:RNA)
RNA: B1 RNA with C26A, G28A, G29C
DNA 1: CAATCTGAATTCCGGTCTCCC
DNA 2: TGGTGGCTACGACGGGATT
B22: CGUGAGC (DNA:RNA)
RNA: B1 RNA with C26G, G29A, C30G
DNA 1: CAATCTGAATTCCGGTCTCCC
DNA 2: TGGTGGCTACGACGGGATT
B23: UAAUCGA (DNA:RNA)
RNA: B9 RNA with G26A, C27A, C28U, G31A
DNA 1: CAATCTGAATTCCGGTCTCCC
DNA 2: TGGTGGCTACGACGGGATT
B24: GGGAAGC (DNA:RNA)
RNA: B9 RNA with U25G, C27G, C28A, C29A, G31C
DNA 1: CAATCTGAATTCCGGTCTCCC
DNA 2: TGGTGGCTACGACGGGATT
B25: AGGAGAU (DNA:RNA)
RNA: B1 RNA with C25A, C26G, U27G, G28A, C30A, C31U
DNA 1: CAATCTGAATTCCGGTCTCCC
DNA 2: TGGTGGCTACGACGGGATT
B26: AUCAGCG (DNA:RNA)
RNA: B1 RNA with C25A, C26U, U27C, G28A, C31G
DNA 1: CAATCTGAATTCCGGTCTCCC
DNA 2: TGGTGGCTACGACGGGATT
B27: UAAUGGU (DNA:RNA)
RNA: B9 RNA with G26A, C27A, C28U, C29G, G31U
DNA 1: CAATCTGAATTCCGGTCTCCC
DNA 2: TGGTGGCTACGACGGGATT
B28: AGCCCUA (DNA:RNA)
RNA: B9 RNA with U25A, G30U, G31A
DNA 1: CAATCTGAATTCCGGTCTCCC
DNA 2: TGGTGGCTACGACGGGATT
B29: UUUGGGC (DNA:RNA)
RNA: B1 RNA with C25U, C26U, C30G
DNA 1: CAATCTGAATTCCGGTCTCCC
DNA 2: TGGTGGCTACGACGGGATT
B30: ACAUCUA (DNA:RNA)
RNA: B1 RNA with C25A, U27A, G28U, G29C, C30U, C31A
DNA 1: CAATCTGAATTCCGGTCTCCC
DNA 2: TGGTGGCTACGACGGGATT
B31: CAAAUCG (DNA:RNA)
RNA: B1 RNA with C26A, U27A, G28A, G29U, C31G
DNA 1: CAATCTGAATTCCGGTCTCCC
DNA 2: TGGTGGCTACGACGGGATT

molecular target: T1, RBFOX1 RRM; assay: EMSA; HiTS-Eq, 1 nM pool, 10 min; buffer printed only for the single-RNA assays: 10 mM Tris pH 7.5, 150 mM NaCl, 3.4 mM EDTA, 0.001% NP-40, 30 C; details: tags: His6 N-terminal (pET28a); label: 5' 32P
How it was run: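 A pool of RNA with 7 randomized nucleotides, 5′-radiolabelled and with DNA-annealed flanks, was equilibrated at 1 nM for 10 min in 50 µL with purified RbFox RRM, wild type or mutant, across increasing protein concentrations. Free RNA was separated by 8% native PAGE, excised, reverse-transcribed, barcoded by PCR and sequenced. Relative association constants were obtained from read-count changes of each RNA species versus the control reaction and normalised to the cognate motif.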

**Q.** How did the binding signal turn out when B1 was run?
**A.** 0.0142 KA relative to UGCAUGU

**Q.** For B2, which binding signal is on record?
**A.** 0.0015 KA relative to UGCAUGU

**Q.** For B3, which binding signal is on record?
**A.** 0.00669 KA relative to UGCAUGU

**Q.** How did the binding signal turn out when B4 was run?
**A.** 0.0165 KA relative to UGCAUGU

**Q.** Which binding signal does the source give for B5 here?
**A.** 0.00203 KA relative to UGCAUGU

**Q.** For B6, which binding signal is on record?
**A.** 0.00664 KA relative to UGCAUGU

**Q.** With B7 as the binder, how does the binding signal read?
**A.** 0.00413 KA relative to UGCAUGU

**Q.** Which binding signal does the source give for B8 here?
**A.** 0.00543 KA relative to UGCAUGU

**Q.** B9 was tested. Which binding signal did it give?
**A.** 0.0184 KA relative to UGCAUGU

**Q.** Which binding signal does the source give for B10 here?
**A.** 0.0236 KA relative to UGCAUGU

**Q.** How did the binding signal turn out when B11 was run?
**A.** 0.011 KA relative to UGCAUGU

**Q.** B12 was tested. Which binding signal did it give?
**A.** 0.0055 KA relative to UGCAUGU

**Q.** For B13, which binding signal is on record?
**A.** 0.00385 KA relative to UGCAUGU

**Q.** For B14, which binding signal is on record?
**A.** 0.000794 KA relative to UGCAUGU

**Q.** B15 was tested. Which binding signal did it give?
**A.** 0.0121 KA relative to UGCAUGU

**Q.** With B16 as the binder, how does the binding signal read?
**A.** 0.0122 KA relative to UGCAUGU

**Q.** How did the binding signal turn out when B17 was run?
**A.** 0.0189 KA relative to UGCAUGU

**Q.** How did the binding signal turn out when B18 was run?
**A.** 0.00265 KA relative to UGCAUGU

**Q.** Which binding signal does the source give for B19 here?
**A.** 0.0051 KA relative to UGCAUGU

**Q.** For B20, which binding signal is on record?
**A.** 0.00325 KA relative to UGCAUGU

**Q.** B21 was tested. Which binding signal did it give?
**A.** 0.000624 KA relative to UGCAUGU

**Q.** B22 was tested. Which binding signal did it give?
**A.** 0.0149 KA relative to UGCAUGU

**Q.** Which binding signal does the source give for B23 here?
**A.** 0.0078 KA relative to UGCAUGU

**Q.** For B24, which binding signal is on record?
**A.** 0.036 KA relative to UGCAUGU

**Q.** B25 was tested. Which binding signal did it give?
**A.** 0.0167 KA relative to UGCAUGU

**Q.** Which binding signal does the source give for B26 here?
**A.** 0.00651 KA relative to UGCAUGU

**Q.** B27 was tested. Which binding signal did it give?
**A.** 0.0142 KA relative to UGCAUGU

**Q.** Which binding signal does the source give for B28 here?
**A.** 0.0003 KA relative to UGCAUGU

**Q.** Which binding signal does the source give for B29 here?
**A.** 0.00539 KA relative to UGCAUGU

**Q.** How did the binding signal turn out when B30 was run?
**A.** 0.000793 KA relative to UGCAUGU

**Q.** With B31 as the binder, how does the binding signal read?
**A.** 0.000981 KA relative to UGCAUGU
